Reference: the supplement of paper PMC5998384

What was measured:
HeLa Kyoto [1] = experiment: thermal stability score vs G1/S (z-score of summed log2 fold changes over temperatures); higher = more thermally stable than in G1/S
HeLa Kyoto [2] = experiment: solubility change mitosis vs G1/S (difference of NP-40 vs SDS log2 ratios) (log2 ratio difference); higher = more soluble in mitosis
HeLa Kyoto [3] = experiment: solubility in G1/S (NP-40 vs SDS abundance) (log2 ratio); higher = more soluble; settings: cell cycle stage: G1/S
HeLa Kyoto [4] = experiment: melting temperature (median over replicates), in situ; higher = more thermally stable
[5] = cell cycle stage: early G1 (4.5 h after nocodazole release)
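Wherever melting temperature (median over replicates), in situ is given: HeLa Kyoto cells synchronized by double thymidine or nocodazole block, proteins quantified by TMT10plex mass spectrometry, three independent biological replicates.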
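Wherever solubility change mitosis vs G1/S (difference of NP-40 vs SDS log2 ratios) is given: synchronized HeLa Kyoto cells (double thymidine block for G1/S, nocodazole release for mitosis), protein amounts in NP-40 versus SDS lysates quantified by mass spectrometry, three biological replicates.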
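Wherever solubility in G1/S (NP-40 vs SDS abundance) is given: HeLa Kyoto cells arrested at G1/S by double thymidine block, proteins quantified by TMT10plex mass spectrometry in mild NP-40 versus SDS extracts, three biological replicates.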
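Wherever thermal stability score vs G1/S (z-score of summed log2 fold changes over temperatures) is given: synchronized HeLa Kyoto cells, proteins quantified by TMT10plex mass spectrometry, three biological replicates, mitosis taken 0.5 h after nocodazole release, G1/S directly after double thymidine block.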

Row | Sequence | thermal stability score (HeLa Kyoto [1]; [5]) | thermal stability score (HeLa Kyoto [1]; cell cycle stage: mitosis) | solubility change mitosis (log2) (HeLa Kyoto [2]) | solubility in G1/S (log2) (HeLa Kyoto [3]) | melting temperature (HeLa Kyoto [4]; cell cycle stage: G1/S) [°C] | melting temperature (HeLa Kyoto [4]; cell cycle stage: mitosis) [°C]
1 | MAIHKALVMCLGLPLFLFPGAWAQGHVPPGCSQGLNPLYYNLCDRSGAWGIVLEAVAGAGIVTTFVLTIILVASLPFVQDTKKRSLLGTQVFFLLGTLGLFCLVFACVVKPDFSTCASRRFLFGVLFAICFSCLAAHVFALNFLARKNHGPRGWVIFTVALLLTLVEVIINTEWLIITLVRGSGEGGPQGNSSAGWAVASPCAIANMDFVMALIYVMLLLLGAFLGAWPALCGRYKRWRKHGVFVLLTTATSVAIWVVWIVMYTYGNKQHNSPTWDDPTLAIALAANAWAFVLFYVIPEVSQVTKSSPEQSYQGDMYPTRGVGYETILKEQKGQSMFVENKAFSMDEPVAAKRPVSPYSGYNGQLLTSVYQPTEMALMHKVPSEGAYDIILPRATANSQVMGSANSTLRAEDMYSAQSHQAATPPKDGKNSQVFRNPYVWD [GPRC5C] | -4.36 | -2.81 | -0.0918 | -0.132 | 54.6 | 57.8
2 | MATTVPDGCRNGLKSKYYRLCDKAEAWGIVLETVATAGVVTSVAFMLTLPILVCKVQDSNRRKMLPTQFLFLLGVLGIFGLTFAFIIGLDGSTGPTRFFLFGILFSICFSCLLAHAVSLTKLVRGRKPLSLLVILGLAVGFSLVQDVIAIEYIVLTMNRTNVNVFSELSAPRRNEDFVLLLTYVLFLMALTFLMSSFTFCGSFTGWKRHGAHIYLTMLLSIAIWVAWITLLMLPDFDRRWDDTILSSALAANGWVFLLAYVSPEFWLLTKQRNPMDYPVEDAFCKPQLVKKSYGVENRAYSQEEITQGFEETGDTLYAPYSTHFQLQNQPPQKEFSIPRAHAWPSPYKDYEVKKEGS [GPRC5A] | -2.25 | -1.15 | -0.365 | -0.337 | 63.4 | 60.3
3 | MAWRHLKKRAQDAVIILGGGGLLFASYLMATGDERFYAEHLMPTLQGLLDPESAHRLAVRFTSLGLLPRARFQDSDMLEVRVLGHKFRNPVGIAAGFDKHGEAVDGLYKMGFGFVEIGSVTPKPQEGNPRPRVFRLPEDQAVINRYGFNSHGLSVVEHRLRARQQKQAKLTEDGLPLGVNLGKNKTSVDAAEDYAEGVRVLGPLADYLVVNVSSPNTAGLRSLQGKAELRRLLTKVLQERDGLRRVHRPAVLVKIAPDLTSQDKEDIASVVKELGIDGLIVTNTTVSRPAGLQGALRSETGGLSGKPLRDLSTQTIREMYALTQGRVPIIGVGGVSSGQDALEKIRAGASLVQLYTALTFWGPPVVGKVKRELEALLKEQGFGGVTDAIGADHRR [DHODH] | -0.868 | -1.34 | -0.147 | 0.149 | 56.2 | 55.7
4 | MPQLYIYIRLLGAYLFIISRVQGQNLDSMLHGTGMKSDSDQKKSENGVTLAPEDTLPFLKCYCSGHCPDDAINNTCITNGHCFAIIEEDDQGETTLASGCMKYEGSDFQCKDSPKAQLRRTIECCRTNLCNQYLQPTLPPVVIGPFFDGSIRWLVLLISMAVCIIAMIIFSSCFCYKHYCKSISSRRRYNRDLEQDEAFIPVGESLKDLIDQSQSSGSGSGLPLLVQRTIAKQIQMVRQVGKGRYGEVWMGKWRGEKVAVKVFFTTEEASWFRETEIYQTVLMRHENILGFIAADIKGTGSWTQLYLITDYHENGSLYDFLKCATLDTRALLKLAYSAACGLCHLHTEIYGTQGKPAIAHRDLKSKNILIKKNGSCCIADLGLAVKFNSDTNEVDVPLNTRVGTKRYMAPEVLDESLNKNHFQPYIMADIYSFGLIIWEMARRCITGGIVEEYQLPYYNMVPSDPSYEDMREVVCVKRLRPIVSNRWNSDECLRAVLKLMSECWAHNPASRLTALRIKKTLAKMVESQDVKI [BMPR1A] | – | – | 0.0431 | -0.0875 | – | –
5 | MGTTAPGPIHLLELCDQKLMEFLCNMDNKDLVWLEEIQEEAERMFTREFSKEPELMPKTPSQKNRRKKRRISYVQDENRDPIRRRLSRRKSRSSQLSSRRLRSKDSVEKLATVVGENGSVLRRVTRAAAAAAAATMALAAPSSPTPESPTMLTKKPEDNHTQCQLVPVVEIGISERQNAEQHVTQLMSTEPLPRTLSPTPASATAPTSQGIPTSDEESTPKKSKARILESITVSSLMATPQDPKGQGVGTGRSASKLRIAQVSPGPRDSPAFPDSPWRERVLAPILPDNFSTPTGSRTDSQSVRHSPIAPSSPSPQVLAQKYSLVAKQESVVRRASRRLAKKTAEEPAASGRIICHSYLERLLNVEVPQKVGSEQKEPPEEAEPVAAAEPEVPENNGNNSWPHNDTEIANSTPNPKPAASSPETPSAGQQEAKTDQADGPREPPQSARRKRSYKQAVSELDEEQHLEDEELQPPRSKTPSSPCPASKVVRPLRTFLHTVQRNQMLMTPTSAPRSVMKSFIKRNTPLRMDPKCSFVEKERQRLENLRRKEEAEQLRRQKVEEDKRRRLEEVKLKREERLRKVLQARERVEQMKEEKKKQIEQKFAQIDEKTEKAKEERLAEEKAKKKAAAKKMEEVEARRKQEEEARRLRWLQQEEEERRHQELLQKKKEEEQERLRKAAEAKRLAEQREQERREQERREQERREQERREQERREQERQLAEQERRREQERLQAERELQEREKALRLQKEQLQRELEEKKKKEEQQRLAERQLQEEQEKKAKEAAGASKALNVTVDVQSPACTSYQMTPQGHRAPPKINPDNYGMDLNSDDSTDDEAHPRKPIPTWARGTPLSQAIIHQYYHPPNLLELFGTILPLDLEDIFKKSKPRYHKRTSSAVWNSPPLQGARVPSSLAYSLKKH [INCENP] | – | – | 0.163 | -1.47 | – | –
6 | MVFSVRQCGHVGRTEEVLLTFKIFLVIICLHVVLVTSLEEDTDNSSLSPPPAKLSVVSFAPSSNGTPEVETTSLNDVTLSLLPSNETEKTKITIVKTFNASGVKPQRNICNLSSICNDSAFFRGEIMFQYDKESTVPQNQHITNGTLTGVLSLSELKRSELNKTLQTLSETYFIMCATAEAQSTLNCTFTIKLNNTMNACAVIAALERVKIRPMEHCCCSVRIPCPSSPEELEKLQCDLQDPIVCLADHPRGPPFSSSQSIPVVPRATVLSQVPKATSFAEPPDYSPVTHNVPSPIGEIQPLSPQPSAPIASSPAIDMPPQSETISSPMPQTHVSGTPPPVKASFSSPTVSAPANVNTTSAPPVQTDIVNTSSISDLENQVLQMEKALSLGSLEPNLAGEMINQVSRLLHSPPDMLAPLAQRLLKVVDDIGLQLNFSNTTISLTSPSLALAVIRVNASSFNTTTFVAQDPANLQVSLETQAPENSIGTITLPSSLMNNLPAHDMELASRVQFNFFETPALFQDPSLENLSLISYVISSSVANLTVRNLTRNVTVTLKHINPSQDELTVRCVFWDLGRNGGRGGWSDNGCSVKDRRLNETICTCSHLTSFGVLLDLSRTSVLPAQMMALTFITYIGCGLSSIFLSVTLVTYIAFEKIRRDYPSKILIQLCAALLLLNLVFLLDSWIALYKMQGLCISVAVFLHYFLLVSFTWMGLEAFHMYLALVKVFNTYIRKYILKFCIVGWGVPAVVVTIILTISPDNYGLGSYGKFPNGSPDDFCWINNNAVFYITVVGYFCVIFLLNVSMFIVVLVQLCRIKKKKQLGAQRKTSIQDLRSIAGLTFLLGITWGFAFFAWGPVNVTFMYLFAIFNTLQGFFIFIFYCVAKENVRKQWRRYLCCGKLRLAENSDWSKTATNGLKKQTVNQGVSSSSNSLQSSSNSTNSTTLLVNNDCSVHASGNGNASTERNGVSFSVQNGDVCLHDFTGKQHMFNEKEDSCNGKGRMALRRTSKRGSLHFIEQM [ADGRG2] | -0.345 | -0.905 | – | – | 56.5 | 54.2
7 | MQEIIASVDHIKFDLEIAVEQQLGAQPLPFPGMDKSGAAVCEFFLKAACGKGGMCPFRHISGEKTVVCKHWLRGLCKKGDQCEFLHEYDMTKMPECYFYSKFGECSNKECPFLHIDPESKIKDCPWYDRGFCKHGPLCRHRHTRRVICVNYLVGFCPEGPSCKFMHPRFELPMGTTEQPPLPQQTQPPAKQSNNPPLQRSSSLIQLTSQNSSPNQQRTPQVIGVMQSQNSSAGNRGPRPLEQVTCYKCGEKGHYANRCTKGHLAFLSGQ [CPSF4] | 0.742 | 1.09 | 0.32 | -0.344 | 48.4 | 50
8 | MAADKGPAAGPRSRAAMAQWRKKKGLRKRRGAASQARGSDSEDGEFEIQAEDDARARKLGPGRPLPTFPTSECTSDVEPDTREMVRAQNKKKKKSGGFQSMGLSYPVFKGIMKKGYKVPTPIQRKTIPVILDGKDVVAMARTGSGKTACFLLPMFERLKTHSAQTGARALILSPTRELALQTLKFTKELGKFTGLKTALILGGDRMEDQFAALHENPDIIIATPGRLVHVAVEMSLKLQSVEYVVFDEADRLFEMGFAEQLQEIIARLPGGHQTVLFSATLPKLLVEFARAGLTEPVLIRLDVDTKLNEQLKTSFFLVREDTKAAVLLHLLHNVVRPQDQTVVFVATKHHAEYLTELLTTQRVSCAHIYSALDPTARKINLAKFTLGKCSTLIVTDLAARGLDIPLLDNVINYSFPAKGKLFLHRVGRVARAGRSGTAYSLVAPDEIPYLLDLHLFLGRSLTLARPLKEPSGVAGVDGMLGRVPQSVVDEEDSGLQSTLEASLELRGLARVADNAQQQYVRSRPAPSPESIKRAKEMDLVGLGLHPLFSSRFEEEELQRLRLVDSIKNYRSRATIFEINASSRDLCSQVMRAKRQKDRKAIARFQQGQQGRQEQQEGPVGPAPSRPALQEKQPEKEEEEEAGESVEDIFSEVVGRKRQRSGPNRGAKRRREEARQRDQEFYIPYRPKDFDSERGLSISGEGGAFEQQAAGAVLDLMGDEAQNLTRGRQQLKWDRKKKRFVGQSGQEDKKKIKTESGRYISSSYKRDLYQKWKQKQKIDDRDSDEEGASDRRGPERRGGKRDRGQGASRPHAPGTPAGRVRPELKTKQQILKQRRRAQKLHFLQRGGLKQLSARNRRRVQELQQGAFGRGARSKKGKMRKRM [DDX54] | 0.641 | 3.16 | 1.12 | -1.96 | 50.7 | 51.6
